# PubChem BioAssay AID504845 (National Center for Advancing Translational Sciences (NCATS), 2011)
# The whole screen tested about 390,000 compounds, of which about 150 (0.038%) were called active. The inconclusive results got no clear call from the source; some entries with a clear call stand among them for comparison. Calls come from the whole dose curve; as a rule, active = well fitted inhibition curve with a large enough effect; inconclusive = small, poorly fitted or top-dose-only effect; inactive = no such curve, though single readings can be large or run the other way. A potency beside an inconclusive call is a rough fit, not a confirmed value.
# Molecular target: Regulator of G-protein signaling 4 (Homo sapiens) (UniProt P49798)
# Assay: Inhibitors of Regulator of G Protein Signaling (RGS) 4: qHTS; note: nearly all actives have a fitted effect of over 75% in size
# Settings: Transcreener GDP fluorescence polarization, RGS4-accelerated GTP hydrolysis; series mostly up to 114 µM; activity change, negative = inhibition: at the top concentration
# Method in brief: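 MLSMR compounds (23 nl, pin-transferred) preincubated 10 min at room temperature with a 500nM (2x) first reagent, then RGS4 at 900nM (2x) plus Transcreener GDP mix added; fluorescence polarization (620/688 nm) read before and after 90 min at 30 °C.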
# % is set by controls: 0 for no effect and ±100 for the full control effect; potency is the fitted concentration of half-maximal effect; tags give direction and shape of the fitted curve.
# Chain of UniProt P49798 (P49798 whole entry, looked up): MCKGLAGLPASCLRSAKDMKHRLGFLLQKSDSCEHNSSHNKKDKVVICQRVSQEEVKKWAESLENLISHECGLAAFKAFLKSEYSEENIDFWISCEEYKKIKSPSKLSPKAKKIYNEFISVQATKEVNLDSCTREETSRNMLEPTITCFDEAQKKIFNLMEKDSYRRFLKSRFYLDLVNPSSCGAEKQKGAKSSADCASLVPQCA
Structure (SMILES),Potency,"activity change, negative = inhibition"
CC1=C/C(=N\OS(=O)(=O)c2ccccc2)C(C(C)C)=CC1=O,"inconclusive: 17.8 µM [inhibitor, full curve, poor fit]",–
CCNc1nc(Cl)nc(NC2CCCCC2)n1,–,inactive: -7.1%
COc1cc(OC)c(N(C)C(=O)c2cn(C3CCCC3)c(=O)c3c2c2ccccc2n3C)cc1Cl,–,inactive: 15.5%
c1ccc2c(CCNc3ncnc4nc[nH]c34)cccc2c1,–,inactive: -4.78%
COC(=O)c1ccc(CSC2=NC[C@@H]3[C@@H]4C(=O)N(Cc5ccccc5)C(=O)[C@@H]4[C@](C)(C(=O)OC)N23)cc1,–,inactive: -6.62%
Cn1cc(/C=C/c2nc3ccccc3c(=O)n2-c2cccc([N+](=O)[O-])c2)c2ccccc21,"inconclusive: 100 µM [inhibitor, partial curve, poor fit]",–
O=C(CSC1=NNC(c2ccccn2)S1)Nc1ccccc1 (stereo not given),–,inactive: -32.9%
CC(C)CC(=O)N1CCN(c2ccc([N+](=O)[O-])c(NCc3ccccc3)c2)CC1,"inconclusive: 89.1 µM [inhibitor, partial curve, poor fit]",–
COc1cccc(COc2ccccc2C2Nc3ccc(Br)cc3C(=O)N2NC(=O)c2ccncc2)c1 (stereo not given),"inconclusive: 56.2 µM [inhibitor, partial curve, poor fit]",–
N[C@@H](CSS(=O)(=O)O)C(=O)O,"inconclusive: 23.8 µM [inhibitor, partial curve, poor fit]",–
CN(C)c1ccc(N/C=C/C(=O)c2ccccc2)cc1,"inconclusive: 44.7 µM [inhibitor, partial curve, poor fit]",–
C/C(=N\NC(=O)c1ccc(OC2OCCOC2Oc2ccc(C(=O)N/N=C(\C)c3ccncc3)cc2)cc1)c1ccncc1 (stereo not given),"inconclusive: 31.6 µM [inhibitor, partial curve, poor fit]",–
CCCCC(c1nnnn1CC1CCCO1)N1CCN(c2nc3ccccc3s2)CC1 (stereo not given),–,inactive: -22.6% [at 11.4 µM]
O=S(=O)(NCCS(=O)(=O)N1CCN(c2ccccc2F)CC1)c1ccc(Cl)cc1,–,inactive: -12.9%
C=CCOc1ccc2nc(NC(=O)OC)[nH]c2c1,–,inactive: -19.9%
O=C1C=CCC(/C=C/c2ccccc2)O1 (stereo not given),"inconclusive: 79.4 µM [inhibitor, single point]",–
Cc1ccc(C(=O)Nc2nc3ccccc3s2)s1,"inconclusive: 89.1 µM [inhibitor, single point]",–
CCCn1c(SCC(=O)NCc2ccc(F)cc2)n[nH]c1=O,"inconclusive: 79.4 µM [inhibitor, partial curve, poor fit]",–
NC(=O)c1ccc(SCC(=O)OCC(=O)NC2CCCCCCC2)c([N+](=O)[O-])c1,"inconclusive: 89.1 µM [inhibitor, partial curve, poor fit]",–
Cc1cc(C(=O)N/N=C\C(Br)=C\c2ccccc2)c(C)o1,"inconclusive: 17.8 µM [inhibitor, full curve, poor fit]",–

Structure (SMILES),Potency,"activity change, negative = inhibition"
O=C(C[n+]1ccccc1)N/N=C/c1ccccc1F,"inconclusive: 79.4 µM [inhibitor, partial curve, poor fit]",–
CCOC(=O)C1(Cc2ccccc2)CCN(Cc2ccc3cc(NC(C)=O)ccc3n2)CC1,"inconclusive: 17.8 µM [inhibitor, partial curve, poor fit]",–
CC1=CN2C(=N)/C(=C/c3ccc([N+](=O)[O-])o3)C(=O)N=C2S1,"inconclusive: 39.8 µM [inhibitor, partial curve, poor fit]",–
COc1cccc(NC(=S)N2CCc3cc(OC)c(OC)cc3C2)c1,"inconclusive: 44.7 µM [inhibitor, partial curve, poor fit]",–
O=C(Cc1ccccc1)Nc1sc2c(c1C(=O)Nc1ccc(Cl)cc1)CCCC2,–,inactive: -130%
O=c1[nH]cccc1-c1nc2ccccc2n1Cc1ccccc1F,"inconclusive: 35.5 µM [inhibitor, partial curve, poor fit]",–
Oc1ccc(CN2CCCc3ccccc32)c2cccnc12,"inconclusive: 79.4 µM [inhibitor, partial curve, poor fit]",–
O=C(/C=C/Sc1ccccc1)c1ccccc1,"inconclusive: 50.1 µM [inhibitor, partial curve, poor fit]",–
O=C(NCc1cccnc1)c1cccn1-c1ncc(C(F)(F)F)cc1Cl,"inconclusive: 17.8 µM [inhibitor, full curve, poor fit]",–
CCOC(=O)c1ccc(N2CSC3=C(C#N)C(c4cccs4)CC(=O)N3C2)cc1 (stereo not given),"inconclusive: 31.6 µM [inhibitor, full curve, poor fit]",–
CCn1c2ccc(C)cc2c2n[nH]c(=S)nc21,"inconclusive: 89.1 µM [inhibitor, partial curve, poor fit]",–
CC(=O)Cc1nsc(NC(=O)c2ccc(-c3cc(C(F)(F)F)ccc3Cl)o2)n1,–,inactive: 3.37%
CCOc1ccc(C(=O)Nc2ccccc2C(=O)O)cc1,"inconclusive: 44.7 µM [inhibitor, partial curve, poor fit]",–
COc1cc(C(=S)N2CCCC2)cc(Cl)c1OCC(=O)Nc1ccc(C)cc1C,"inconclusive: 50.1 µM [inhibitor, partial curve, poor fit]",–
Cc1cc(N2O[C@]34C=C[C@]25C[C@@H](O)CC[C@]5(C)C3CC[C@]2(C)[C@@H]([C@H](C)/C=C/[C@H](C)C(C)C)CC[C@H]24)no1 (stereo not given in full),"inconclusive: 44.7 µM [inhibitor, partial curve, poor fit]",–
CC(=O)C(C(C)=O)c1c(Cl)c(O)c(O)c2c(C(=O)c3ccccc3)coc12,"inconclusive: 89.1 µM [inhibitor, partial curve, poor fit]",–
COCCCNC(=O)C[C@H]1C[C@H](C(=O)N2CCOCC2)[C@@]2(CCC3CCCC3)c3[nH]c4cc(-c5ccco5)ccc4c3CCN2C1=O,"inconclusive: 35.5 µM [inhibitor, partial curve, poor fit]",–
Cc1ccc2c(c1)CCCN2C(=O)Nc1ccc2c(c1)OCO2,"inconclusive: 79.4 µM [inhibitor, partial curve, poor fit]",–
COc1ccc(C2C(C(=O)/C=C/c3ccco3)=C(O)C(=O)N2CCN2CCOCC2)cc1OC (stereo not given),"inconclusive: 100 µM [inhibitor, single point]",–
Cc1ccc(-c2cc(C(=O)Nc3ccccc3C(N)=O)c3ccccc3n2)o1,"inconclusive: 50.1 µM [inhibitor, partial curve, poor fit]",–

Structure (SMILES),Potency,"activity change, negative = inhibition"
Cc1cc2cc(C=C(C#N)C#N)c(Cl)nc2cc1C,"inconclusive: 79.4 µM [inhibitor, partial curve, poor fit]",–
CC(C)COCC(O)CCC(=O)NNC(=S)Nc1ccccc1 (stereo not given),"inconclusive: 79.4 µM [inhibitor, single point]",–
O=C1c2cccc3c([N+](=O)[O-])c(O)cc(c23)C(=O)N1Nc1ccccc1,"inconclusive: 17.8 µM [inhibitor, full curve, poor fit]",–
CCCCCOC(=O)c1ccc(NC(=O)c2cccc(NC(=O)c3ccccc3C(=O)O)c2)cc1,–,inactive: -20.7%
c1ccc(-c2ccc(-c3nc(-c4cccnc4)no3)cc2)cc1,–,inactive: 0%
Cc1cc(C)nc(SCCC(=O)Nc2ccccc2Cl)n1,"inconclusive: 50.1 µM [inhibitor, single point]",–
CCOC(=O)C1=C(C)N=c2s/c(=C\c3cc(OC)c(OC)c(OC)c3)c(=O)n2C1/C=C/c1ccccc1 (stereo not given),"inconclusive: 17.8 µM [inhibitor, full curve, poor fit]",–
CC(C)Cc1ccc(C(C)/C=C2/CCC(CN3CCCCC3)C2=O)cc1 (stereo not given),"inconclusive: 35.5 µM [inhibitor, partial curve, poor fit]",–
COc1cccc(-n2nc(-c3ccnn3-c3ccccc3)c(=O)n(C)c2=O)c1,"inconclusive: 89.1 µM [inhibitor, single point]",–
COc1ccccc1C1=NNC(=Nc2cccc(S(=O)(=O)N(C)C)c2)SC1,"inconclusive: 79.4 µM [inhibitor, partial curve, poor fit]",–
CCOC(=O)[C@@H]1[C@H]2COc3cc(OC)ccc3[C@H]2N2C(=O)N(c3ccc(C(F)(F)F)cc3)C(=O)[C@@]12C,"inconclusive: 70.8 µM [inhibitor, single point]",–
COc1cccc(NC(=O)CN(C)C(=O)c2cc(-c3cccc(Br)c3)nc3ccccc23)c1,–,inactive: 8.55%
CCOC(=O)C(=Cc1ccc(-n2cncn2)cc1)C(=O)OCC,"inconclusive: 79.4 µM [inhibitor, partial curve, poor fit]",–
CC(C)NCC(O)COC1CCC(C(C)(C)C)CC1 (stereo not given),"inconclusive: 79.4 µM [inhibitor, partial curve, poor fit]",–
CCO[C@@H]1OC(C(=O)N2CCOCC2)=C[C@H](c2ccccc2)[C@H]1CCCO,–,inactive: 5.81%
CC(=O)OC(COc1ccc(F)cc1)Cn1cnc2ccccc21 (stereo not given),"inconclusive: 70.8 µM [inhibitor, single point]",–
CCOc1ccccc1N1CCN(C(=O)c2ccc(-c3ccc(OC(C)=O)cc3)cc2)CC1,"inconclusive: 79.4 µM [inhibitor, partial curve, poor fit]",–
CCOC(=O)c1c(NC(=O)OC)sc(C(=O)N(CC)CC)c1C,"inconclusive: 56.2 µM [inhibitor, partial curve, poor fit]",–
COc1ccc(N2CCN(C3=NS(=O)(=O)C(c4cccc(Br)c4)=C3C)CC2)cc1,"inconclusive: 56.2 µM [inhibitor, partial curve, poor fit]",–
Fc1ccc(CNC2CCN(Cc3ccccc3)CC2)cc1,–,inactive: 8.96%
